Test results as given in patent publication US20220356245A1 (FORTY SEVEN, published 2022).
Where two headings read alike, the source gives them in different places.

T1: mouse CD47 (mCD47) expressed on CHO cells (mouse, UniProt Q61735 19-303)
T1 construct: whole, on cells; also called CHO-mCD47
T1 sequence (looked up): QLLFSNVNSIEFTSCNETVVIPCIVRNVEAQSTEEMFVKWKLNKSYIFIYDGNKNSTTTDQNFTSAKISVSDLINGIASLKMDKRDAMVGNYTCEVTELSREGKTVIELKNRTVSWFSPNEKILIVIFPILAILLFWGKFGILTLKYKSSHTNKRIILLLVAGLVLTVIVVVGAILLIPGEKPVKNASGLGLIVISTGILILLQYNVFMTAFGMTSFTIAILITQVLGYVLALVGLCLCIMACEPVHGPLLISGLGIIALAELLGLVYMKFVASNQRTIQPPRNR


Legend:
[1] = target: T2, hu-sCD47-6His; extracellular domain of human CD47 antigen with 6His-tag (human); experiment: SPR Biacore
T2 construct: also called hCD47-his; soluble hCD47

[2] = target: T3, human CD47 (hCD47) expressed on cells (human, UniProt Q08722); experiment: flow cytometry, Raji cells
T3 construct: Transfected CHO cells or endogenous CD47 of human cells; also called CHO-hCD47; CD47 on Raji cells

[3] = target: T3, human CD47 (hCD47) expressed on cells; experiment: flow cytometry on Raji cells, hIgG4 format, delta MFI
[4] = target: T3, human CD47 (hCD47) expressed on cells; experiment: flow cytometry on Raji cells, hIgG4 format: inhibition of hSIRPα binding to hCD47
[5] = target: T1, mouse CD47 (mCD47) expressed on CHO …; experiment: flow cytometry, CHO-mCD47 cells (not shown)
[6] = target: T3, human CD47 (hCD47) expressed on cells; experiment: flow cytometry, Raji cells, competition with hSIRPα
[7] = target: T2, hu-sCD47-6His; extracellular domain of …; experiment: SPR Biacore; head read as x 10^-4
[8] = target: T2, hu-sCD47-6His; extracellular domain of …; experiment: SPR Biacore; remark: listed apart in the source
[9] = target: T3, human CD47 (hCD47) expressed on cells; experiment: flow cytometry, Raji cells; remark: listed apart in the source
[10] = target: T3, human CD47 (hCD47) expressed on cells; experiment: flow cytometry, Raji cells, competition with hSIRPα; remark: listed apart in the source

Binder	Kd [1] [nM]	kon [1] [M⁻¹ s⁻¹]	EC50 [2] [µg/mL]	EC50 (read off the curve) [3] [µg/mL]	IC50 (read off the curve) [4] [µg/mL]	binding result [5]	IC50 [6] [µg/mL]	koff [7] [s⁻¹]	Kd [8] [nM]	koff [8] [s⁻¹]	kon [8] [M⁻¹ s⁻¹]	EC50 [9] [µg/mL]	IC50 [10] [µg/mL]
h20-VH3-VL2 (candidate 20.12) (antibody, human IgG4 S228P, kappa, hIgG4-S228P/kappa; also called h20-H3-L2) heavy: QVQLVQSGAEVKKPGASVKVSCKASGYSFTDYYINWVRQAPGQGLEWMGRIYPGIGNTYYNKKFKGRVTVTRDTSISTAHMELSSLRSDDTAVYYCARGHYGRGMDYWGQGTAVTVSSASTKGPSVFPLAPCSRSTSESTAALGCLVKDYFPEPVTVSWNSGALTSGVHTFPAVLQSSGLYSLSSVVTVPSSSLGTKTYTCNVDHKPSNTKVDKRV[human IgG4 Fc with S228P (EU numbers) omitted] light: DIVMTQSPDSLAVSLGERATINCKSSQSLLNSIDQKNYLAWYQQKPGQPPKLLIYFASTKESGVPDRFSGSGSGTDFTLTISSLQAEDVAVYYCQQHYSTPWTFGGGTKVEIKRTVAAPSVFIFPPSDEQLKSGTASVVCLLNNFYPREAKVQWKVDNALQSGNSQESVTEQDSKDSTYSLSSTLTLSKADYEKHKVYACEVTHQGLSSPVTKSFNRGEC	2.49	246000	0.153	~0.08	~0.1	no binding	0.16	0.00056					
h22-VH3-VL2 (candidate 22.10) (antibody, human IgG4 S228P, kappa, hIgG4-S228P/kappa) heavy: QVQLQESGAEVKKPGASVKVSCKASGYTFTTYWMHWVRQAPGQGLEWMGMIHPNSGTTNYNEKFKSRVTMTRDTSTSTVYMELSSLRSEDTAVYYCTRSHYYDGHFSYWGQGTLVTVSSASTKGPSVFPLAPCSRSTSESTAALGCLVKDYFPEPVTVSWNSGALTSGVHTFPAVLQSSGLYSLSSVVTVPSSSLGTKTYTCNVDHKPSNTKVDKRV[human IgG4 Fc with S228P (EU numbers) omitted] light: DIVMTQSPDSLAVSLGERATINCKSSQSLLNSRTRKNYLAWYQQKPGQPPKLLIYWASTRESGVPDRFSGSGSGTDFTLTISSLQAEDVAVYYCKQSYNLWTFGGGTKLEIKRTVAAPSVFIFPPSDEQLKSGTASVVCLLNNFYPREAKVQWKVDNALQSGNSQESVTEQDSKDSTYSLSSTLTLSKADYEKHKVYACEVTHQGLSSPVTKSFNRGEC									11.1	0.000315	28800	0.141	0.109

Continued, values first:

Kd [1] [nM]	kon [1] [M⁻¹ s⁻¹]	EC50 [2] [µg/mL]	EC50 (read off the curve) [3] [µg/mL]	IC50 (read off the curve) [4] [µg/mL]	binding result [5]	IC50 [6] [µg/mL]	koff [7] [s⁻¹]	Kd [8] [nM]	koff [8] [s⁻¹]	kon [8] [M⁻¹ s⁻¹]	EC50 [9] [µg/mL]	IC50 [10] [µg/mL]	Binder
								13.2	0.000337	25600	0.07	0.119	h22-VH4-VL1 (candidate 22.13) (antibody, human IgG4 S228P, kappa, hIgG4-S228P/kappa) heavy: QVQLVQSGAEVKKPGASVKVSCKGSGYTFTTYWMHWVRQAPGQGLEWMGMIHPNSGTTNYNEKFKSRVTLTRDTSISTAYMELSRLTSDDTAVYYCTRSHYYDGHFSYWGQGTMVTVSSASTKGPSVFPLAPCSRSTSESTAALGCLVKDYFPEPVTVSWNSGALTSGVHTFPAVLQSSGLYSLSSVVTVPSSSLGTKTYTCNVDHKPSNTKVDKRV[human IgG4 Fc with S228P (EU numbers) omitted] light: DIVMTQSPGSLAVSLGERATFNCKSSQSLLNSRTRKNYLAWYQQKPGQPPKLLIYWASTRESGVPDRFSGSGSGTDFTLTISSLQAEDVAVYYCKQSYNLWTFGGGTKVEVKRTVAAPSVFIFPPSDEQLKSGTASVVCLLNNFYPREAKVQWKVDNALQSGNSQESVTEQDSKDSTYSLSSTLTLSKADYEKHKVYACEVTHQGLSSPVTKSFNRGEC
								12.9	0.000318	24600	0.101	0.075	h22-VH3-VL1 (candidate 22.9) (antibody, human IgG4 S228P, kappa, hIgG4-S228P/kappa) heavy: QVQLQESGAEVKKPGASVKVSCKASGYTFTTYWMHWVRQAPGQGLEWMGMIHPNSGTTNYNEKFKSRVTMTRDTSTSTVYMELSSLRSEDTAVYYCTRSHYYDGHFSYWGQGTLVTVSSASTKGPSVFPLAPCSRSTSESTAALGCLVKDYFPEPVTVSWNSGALTSGVHTFPAVLQSSGLYSLSSVVTVPSSSLGTKTYTCNVDHKPSNTKVDKRV[human IgG4 Fc with S228P (EU numbers) omitted] light: DIVMTQSPGSLAVSLGERATFNCKSSQSLLNSRTRKNYLAWYQQKPGQPPKLLIYWASTRESGVPDRFSGSGSGTDFTLTISSLQAEDVAVYYCKQSYNLWTFGGGTKVEVKRTVAAPSVFIFPPSDEQLKSGTASVVCLLNNFYPREAKVQWKVDNALQSGNSQESVTEQDSKDSTYSLSSTLTLSKADYEKHKVYACEVTHQGLSSPVTKSFNRGEC
								10.4	0.000325	31200	0.099	0.093	h22-VH4-VL2 (candidate 22.14) (antibody, human IgG4 S228P, kappa, hIgG4-S228P/kappa) heavy: QVQLVQSGAEVKKPGASVKVSCKGSGYTFTTYWMHWVRQAPGQGLEWMGMIHPNSGTTNYNEKFKSRVTLTRDTSISTAYMELSRLTSDDTAVYYCTRSHYYDGHFSYWGQGTMVTVSSASTKGPSVFPLAPCSRSTSESTAALGCLVKDYFPEPVTVSWNSGALTSGVHTFPAVLQSSGLYSLSSVVTVPSSSLGTKTYTCNVDHKPSNTKVDKRV[human IgG4 Fc with S228P (EU numbers) omitted] light: DIVMTQSPDSLAVSLGERATINCKSSQSLLNSRTRKNYLAWYQQKPGQPPKLLIYWASTRESGVPDRFSGSGSGTDFTLTISSLQAEDVAVYYCKQSYNLWTFGGGTKLEIKRTVAAPSVFIFPPSDEQLKSGTASVVCLLNNFYPREAKVQWKVDNALQSGNSQESVTEQDSKDSTYSLSSTLTLSKADYEKHKVYACEVTHQGLSSPVTKSFNRGEC
